These results are taken from PMC12136788.

The other results are listed elsewhere or left out.

The chains are these.
B1: 118334292_118334412_3697_CDS_ENSMUSG00000030138_ENSMUST00000032237|mouse|control|control (ssRNA)
RNA: GGGAGUUCUACAGUCCGACGAUCCUGCCUGUCCCUCGGCACUUUGCCUGCCUUUGCUUGAGUCUUGGGUUUGUUCUUAAAUGGCAGAGCCUUCUGCAAGGCUUUGGGAAUGUGCAGUGAAUUAAAAUGUUUCUUUUGUCUCAGCAACAGAGGAUUGAGCAUCA
B2: chr1:225611761:225611762:-_ENSG00000143815_ENST00000272163|hu_mus|hu_hu_hu_mus_True|58_108 (ssRNA)
RNA: GGGAGUUCUACAGUCCGACGAUCCCAGGCCAUCGACCUCUGACCACUUCACCCUCAACAAACUUCCUACUUGGCAUUUUCUAUAAUUAGUCUGGCCGCGCUCCGGCGGGAACUCCAGCCACUCCAGGACAGUCACCAGCAGCCCAACAGAGGAUUGAGCAUCA
B3: chr11:95532483:95532484:+_ENSG00000166037_ENST00000540830|hu_mus|FALSE|FALSE (ssRNA)
RNA: GGGAGUUCUACAGUCCGACGAUCGCUGUUGCUUUCCGGAUAGGCAAAUGUGGGCUUAUUUGGGGAGCGUCUCAGAUCACUGUUAAGGAAAGGCUUAUCAGGUGGAUACAAUACAUAUGGAGACGAAGAAUGACGAACCAUAUUCAACAGAGGAUUGAGCAUCA
B4: chr16:22014287:22014288:+_ENSMUSG00000022855_ENSMUST00000023561|mus_mus|FALSE|FALSE (ssRNA)
RNA: GGGAGUUCUACAGUCCGACGAUCAGAGUUCGAAAAGACCUCUCCAGAAGGGGCCACAUUCCGUGUUCCAUUACAAGCAGAAGACACCAUGGGUUUUGUGGUCAGCUGGAACGGGAAUCCAAAUAAACUGGCAGCAUUGUAGAGCAACAGAGGAUUGAGCAUCA
B5: chr12:86613709:86613710:-_ENSMUSG00000008822_ENSMUST00000008966|mus_mus|motif|central (ssRNA)
RNA: GGGAGUUCUACAGUCCGACGAUCCUGCAGUUGCCCUUGCACGGUGCCCCGGUCGGUGUUCUGAACCCAGCCCACCAAACCGGGCUUUUUACCCUCAGCCUGAGUGUACUUGCGGAAAAACACCCCUUGAACCUUUCCAAAAAUCAACAGAGGAUUGAGCAUCA
B6: chr14:66974463:66974464:+_ENSMUSG00000022044_ENSMUST00000074523|mus_hu|mus_mus_mus_hu_False|78_108 (ssRNA)
RNA: GGGAGUUCUACAGUCCGACGAUCUUGUAGGAUGAUUUAUUCAGGGGAUCGGCCAGGAAGCAAGAGCAGAACAAGGACACCAGCGGGAGCUCCUUCAUCUUCUCUUUGUAGGCAGCAAGGGUCAUGUUUCUGGGAUCUGGUGGCCAACAGAGGAUUGAGCAUCA
B7: chr14:90871172:90871173:+_ENSG00000198668_ENST00000553542|hu_hu|FALSE|FALSE (ssRNA)
RNA: GGGAGUUCUACAGUCCGACGAUCAAUACAUGCAGAUUUUGUGUGUGUGGACAGAAGGUACUUUUGACAUUCAGUUUUGCUAUAUAGAAACAGAAUGAAUAAAUGAACUUUUUUCUUUUUUCUUUUUUUUGCAAGAGGUAAGUACAACAGAGGAUUGAGCAUCA
B8: chr10:33218917:33218918:-_ENSG00000150093_ENST00000302278|perfect_dup|FALSE|FALSE (ssRNA)
RNA: GGGAGUUCUACAGUCCGACGAUCAGAGCCUCUGGGAUUCUCUAUGUCACUUGGCUGGCAACCCUUCUUUUUCAAAGCUUCUAAAUCAUCACAUCGUGCAGAAGUAGGCAUUCCUUCUUGCAAAAAUGUCGUAUUUGUACACCACAACAGAGGAUUGAGCAUCA
B9: chr14:60920330:60920331:+_ENSMUSG00000021987_ENSMUST00000022563|mus_mus|motif|central (ssRNA)
RNA: GGGAGUUCUACAGUCCGACGAUCGCAAAAUCUCCACUACCCGCACUUCCCUUUUUCCUUUACCUGAAAGUUUAUAGGCAGCGGCAGUCAAGUUAAAAAUGUAUUUAGUACUCAGAACGCUUUAGAGCUUUGCCACUUUAAAUGCAACAGAGGAUUGAGCAUCA
B10: chr3:138219032:138219033:+_ENSMUSG00000028156_ENSMUST00000029803|mus_hu|FALSE|FALSE (ssRNA)
RNA: GGGAGUUCUACAGUCCGACGAUCUGUUACAUGAGGAAAAAAACAAAAGCAAAACAAAUGAAAAACUGAAAUCAGAAUCACUAAUAUUAUCAAGUAGGGAAACAAAUAAAUUAAAAUCUAGCAGCCAUCAGCAAGAGUACAGCACAACAGAGGAUUGAGCAUCA
B11: chr22:19452774:19452775:-_ENSG00000070010_ENST00000399523|hu_hu|hu_hu_hu_mus_False|38_78 (ssRNA)
RNA: GGGAGUUCUACAGUCCGACGAUCCUUCUCAUUGUAGUUGAUAGCAAUCACAUCUCCGGUGGUCAGACAGGCGAAGUUUCUCAAUGCAUUUUCUAAUACGGCUUUGGGGUUGGUAAUAUCCAGGAAGUCUGGGCUCUGAGGCUGCAACAGAGGAUUGAGCAUCA
B12: chr1:95363323:95363324:-_ENSG00000117519_ENST00000538964|hu_hu|motif|central (ssRNA)
RNA: GGGAGUUCUACAGUCCGACGAUCAAGGACUAAAUACUGAGCUCCUUCUGUGUGGAUCUAAUAAUCAAUGCCUUGGUCGCGGUAUUGGUAAUCUCUGGGGUAGUCAUCCUGGUACUCGCCAUGAUACUCAUCAGGGUAUUCUGCCAACAGAGGAUUGAGCAUCA
B13: 231487157_231487277_954_CDS_ENSG00000010072_ENST00000295050|human|control|control (ssRNA)
RNA: GGGAGUUCUACAGUCCGACGAUCUGCCUUUCCUUUGCCUUUUUUUGAGUAAUUCUCUGGUUCCUUGAUUUUUAUGUAAGUGCCUCCACAGGUUUUCUGGUGCUCAGCCCACCAAUAGUCAUGAGCAGAGGGUUCCCUGUUAGUCAACAGAGGAUUGAGCAUCA
B14: chr7:23547099:23547100:-_ENSG00000164548_ENST00000297071|hu_hu|FALSE|FALSE (ssRNA)
RNA: GGGAGUUCUACAGUCCGACGAUCUGGUCUGCCCAUGUAGAUGCCUGGUGUUGGUGUGUGCGCUCUCUUGGUUAUAGAAUAAUCCACCCGAAUUCUUCUACCAUCCAGCUCCAUUCCAUUUGCCCUUUCCAUAGCCUCCUUUGACAACAGAGGAUUGAGCAUCA
B15: chrX:12728449:12728450:+_ENSMUSG00000031010_ENSMUST00000089302|perfect_dup|motif|central (ssRNA)
RNA: GGGAGUUCUACAGUCCGACGAUCAUGUCCUAAAGCUUUUAAAGCUUCAUCUAAACUAUCCACCAAUGAAUUAAAAAAUUCGGAAGCAUCGUGUUGUUCACGCAGAUUAACAGGCUCACCCCAAAGCCUGAACUGUUUCCAAAACAACAGAGGAUUGAGCAUCA
B16: chr17:35971825:35971826:-_ENSMUSG00000001525_ENSMUST00000001566|mus_hu|FALSE|FALSE (ssRNA)
RNA: GGGAGUUCUACAGUCCGACGAUCUGAGCGCCUACUAUGUGCCAGGCACUGUUCUAGACCCCCCCCAGAAGAAAAAACAAAAAACAAGAUAGAGGCAGCAAACACAAAUUCUGAGGGAGAGGAAAGGGGCAGUUGAGUAAGACGCAACAGAGGAUUGAGCAUCA
B17: chr10:33190432:33190433:-_ENSG00000150093_ENST00000302278|hu_mus|hu_hu_hu_mus_True|98_98 (ssRNA)
RNA: GGGAGUUCUACAGUCCGACGAUCUACAUUUUCCAAACCUGCACAUGAAUAAAACCCUGGCCACAGAGCCCCAAAACUACCCUACUGUGACUAAGAUGCUGCUGCUGUGAGCUUGGUGUUGCAAAAUCCGCCUGAGUAGGAUUCCAACAGAGGAUUGAGCAUCA
B18: chr3:47164985:47164986:-_ENSG00000181555_ENST00000409792|hu_mus|FALSE|FALSE (ssRNA)
RNA: GGGAGUUCUACAGUCCGACGAUCUCUUUCGGACCGACAUCGGGAAGAUACAUACCGAGUAUCUCGUUCAAGUUUUGAGUAGCUACAAUAUCUAUCAUCUCUCUCUGUUUUCGAUCUUGAUGAUUUCCCCAAAUCCUCACUUUUCAACAGAGGAUUGAGCAUCA
B19: chr13:76104392:76104393:-_ENSG00000188243_ENST00000355801|hu_hu|FALSE|FALSE (ssRNA)
RNA: GGGAGUUCUACAGUCCGACGAUCAUACUUAAGAGAUCUGCAAGUGUCUGAGCUCACAGCCAUACCCAGUUUCCACUGAAAAUCUACAAGCUGGUUGGUGACAUCGGACUUAGCAUCCAGCGGCGGCUCGCUGGACGCCUCCAUCAACAGAGGAUUGAGCAUCA
B20: chr3:125216745:125216746:-_ENSG00000114520_ENST00000251775|hu_mus|motif|central (ssRNA)
RNA: GGGAGUUCUACAGUCCGACGAUCGAAGAUUUUGUCUCUACAAAGGACAGGAUGUGAAGCAACCCUCAAGAGGAAGUUUUCGGAGCCCACGCGUCGUCUCUCCACAAAGUCUGGGUCCAUGUUGUCAGCAGAGAGUUUAUGCCACAACAGAGGAUUGAGCAUCA
B21: chr17:45757422:45757423:+_ENSG00000108424_ENST00000290158|hu_mus|FALSE|FALSE (ssRNA)
RNA: GGGAGUUCUACAGUCCGACGAUCUACAUCCUUCCCGAAGGCUGUACACAAGUCCCCUAUCAGACCAGCAGCACAGGCUACCACUCCGUCCGUAUGAUCCUCAUCUCCAGCAAUGUGAUCAAUAAAAGACAAAAUAAAUUCUACCAACAGAGGAUUGAGCAUCA
B22: chr2:121837063:121837064:+_ENSMUSG00000033411_ENSMUST00000110578|mus_hu|FALSE|FALSE (ssRNA)
RNA: GGGAGUUCUACAGUCCGACGAUCAUUAGUCAUUCAUAUAUUCUUAUCUACCCAGUCUCUUGAUUUUUGAAAAGAUUUCACCUACAGUAGAAUAUUACAGAAACAAAAUAUAAAUGCAUGUCUUUCUAAAUGAAACUUACAUAGCAACAGAGGAUUGAGCAUCA

The target in this experiment is T1, UNK ZnF1-3 (human, UniProt Q9C0B0 31-174).
T1 sequence: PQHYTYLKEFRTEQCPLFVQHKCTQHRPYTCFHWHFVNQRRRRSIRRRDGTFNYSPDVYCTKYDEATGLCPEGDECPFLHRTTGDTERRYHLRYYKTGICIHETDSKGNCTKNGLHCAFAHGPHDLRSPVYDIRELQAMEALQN
Put plainly: nsRBNS (natural sequence RNA bind-n-seq); RBNS binding buffer (assumed for nsRBNS): 25 mM Tris pH 7.5, 150 mM KCl, 3 mM MgCl2, 0.01% Triton X-100, 500 ug/ml BSA, 20 U/ml SUPERase-In, 4 C; UNK is unkempt and MSI1 is Musashi-1; names of the RNAs are library labels; protein concentration not given here; high values mean tight binding.
Molecule B1 returned a binding signal of 0.649 enrichment R.

On to B2, for which the binding signal turned out to be 1.36 enrichment R.

Regarding B3, the binding signal is 1.53 enrichment R.

Molecule B4 displayed a binding signal of 1.46 enrichment R.

As to B5, the binding signal was determined as 0.953 enrichment R.

With B6, the binding signal was 2.41 enrichment R.

Molecule B7 gave a binding signal of 1.18 enrichment R.

B8 showed a binding signal of 0.789 enrichment R.

Molecule B9 had a binding signal of 1.19 enrichment R.

B10 registered a binding signal of 2.42 enrichment R.

The molecule B11 had a binding signal of 1.12 enrichment R.

Molecule B12 came in with a binding signal of 0.506 enrichment R.

The molecule B13 returned a binding signal of 0.512 enrichment R.

B14 returned a binding signal of 0.625 enrichment R.

B15 yielded a binding signal of 1.65 enrichment R.

Consider B16, for which the binding signal came to 2.22 enrichment R.

B17 yielded a binding signal of 1.2 enrichment R.

For the molecule B18, the binding signal amounted to 0.663 enrichment R.

The molecule B19 returned a binding signal of 0.651 enrichment R.

The molecule B20 registered a binding signal of 1.49 enrichment R.

Take B21: the binding signal came out at 1.56 enrichment R.

As for B22, the binding signal is 0.826 enrichment R.
